From a collection of fitness landscapes (doi:10.1126/science.1257360)
This is one part of the list.

B1: PhoQ; a variant is named by its letters at X, in order, P23837 (parent)
chain: MKKLLRLFFPLSLRVRFLLATAAVVLVLSLAYGMVALIGYSVSFDKTTFRLLRGESNLFYTLAKWENNKLHVELPENIDKQSPTMTLIYDENGQLLWAQRDVPWLMKMIQPDWLKSNGFHEIEADVNDTSLLLSGDHSIQQQLQEVREDDDDAEMTHSVAVNVYPATSRMPKLTIVVVDTIPVELKSSYMVWSWFIYVLSANLLLVIPLLWVAAWWSLRPIEALAKEVRELEEHNRELLNPATTRELTSLVRNLNRLLKSERERYDKYRTTLTDLTHSLKTPLXXLQXXLRSLRSEKMSVSDAEPVMLEQISRISQQIGYYLHRASMRGGTLLSRELHPVAPLLDNLTSALNKVYQRKGVNISLDISPEISFVGEQNDFVEVMGNVLDNACKYCLEFVEISARQTDEHLYIVVEDDGPGIPLSKREVIFDRGQRVDTLRPGQGVGLAVAREITEQYEGKIVAGESMLGGARMEVIFGRQHSAPKDE

Variants of: B1
Assay: enrichment ratio after two sorts for PhoP signalling (ratio (wild type AVST 3.29)); higher = more functional
Conditions: with PhoP (E. coli)

Question: For KSEM, which enrichment ratio is on record?
Answer: ≤ 0.25

Question: How did the enrichment ratio turn out when EFNH was run?
Answer: ≤ 0.25

Question: With GRST as the variant, how does the enrichment ratio read?
Answer: ≤ 0.25

Question: DNDV was tested. Which enrichment ratio did it give?
Answer: ≤ 0.25

Question: TPNH was tested. Which enrichment ratio did it give?
Answer: ≤ 0.25

Question: RRHP was tested. Which enrichment ratio did it give?
Answer: ≤ 0.25

Question: IATQ was tested. Which enrichment ratio did it give?
Answer: ≤ 0.25

Question: How did the enrichment ratio turn out when MNVN was run?
Answer: ≤ 0.25

Question: LWAT was tested. Which enrichment ratio did it give?
Answer: ≤ 0.25

Question: With HPQK as the variant, how does the enrichment ratio read?
Answer: ≤ 0.25

Question: For QVGA, which enrichment ratio is on record?
Answer: ≤ 0.25

Question: With STGH as the variant, how does the enrichment ratio read?
Answer: 17.1

Question: WKCN was tested. Which enrichment ratio did it give?
Answer: ≤ 0.25

Question: How did the enrichment ratio turn out when KKQR was run?
Answer: ≤ 0.25

Question: HKHW was tested. Which enrichment ratio did it give?
Answer: ≤ 0.25

Question: For YRKD, which enrichment ratio is on record?
Answer: ≤ 0.25

Question: EQPT was tested. Which enrichment ratio did it give?
Answer: ≤ 0.25

Question: For DNLM, which enrichment ratio is on record?
Answer: ≤ 0.25

Question: For TSNV, which enrichment ratio is on record?
Answer: 9.24

Question: Which enrichment ratio does the source give for KQGW here?
Answer: ≤ 0.25

Question: How did the enrichment ratio turn out when RWSL was run?
Answer: ≤ 0.25

Question: How did the enrichment ratio turn out when NNGR was run?
Answer: ≤ 0.25

Question: NYPR was tested. Which enrichment ratio did it give?
Answer: ≤ 0.25

Question: Which enrichment ratio does the source give for CWMS here?
Answer: ≤ 0.25

Question: How did the enrichment ratio turn out when LCHL was run?
Answer: 2.38

Question: Which enrichment ratio does the source give for DNGG here?
Answer: ≤ 0.25

Question: How did the enrichment ratio turn out when AGGP was run?
Answer: ≤ 0.25

Question: Which enrichment ratio does the source give for AQNG here?
Answer: 28.2

Question: For GSKR, which enrichment ratio is on record?
Answer: ≤ 0.25

Question: For FDIY, which enrichment ratio is on record?
Answer: ≤ 0.25

Question: With LRWV as the variant, how does the enrichment ratio read?
Answer: ≤ 0.25

Question: How did the enrichment ratio turn out when KDMH was run?
Answer: ≤ 0.25

Question: For MKPF, which enrichment ratio is on record?
Answer: ≤ 0.25

Question: With GWIV as the variant, how does the enrichment ratio read?
Answer: ≤ 0.25

Question: With YFIA as the variant, how does the enrichment ratio read?
Answer: ≤ 0.25

Question: For QQKH, which enrichment ratio is on record?
Answer: ≤ 0.25

Question: How did the enrichment ratio turn out when YYQM was run?
Answer: ≤ 0.25

Question: Which enrichment ratio does the source give for GWGM here?
Answer: ≤ 0.25

Question: Which enrichment ratio does the source give for FVEI here?
Answer: ≤ 0.25

Question: Which enrichment ratio does the source give for QIPY here?
Answer: ≤ 0.25

Question: Which enrichment ratio does the source give for YYMC here?
Answer: ≤ 0.25

Question: HRCT was tested. Which enrichment ratio did it give?
Answer: ≤ 0.25

Question: DMAT was tested. Which enrichment ratio did it give?
Answer: ≤ 0.25

Question: Which enrichment ratio does the source give for SENF here?
Answer: ≤ 0.25

Question: With EYQN as the variant, how does the enrichment ratio read?
Answer: ≤ 0.25

Question: How did the enrichment ratio turn out when MPPY was run?
Answer: ≤ 0.25

Question: Which enrichment ratio does the source give for DGPQ here?
Answer: ≤ 0.25

Question: For YWGS, which enrichment ratio is on record?
Answer: ≤ 0.25

Question: With ERDP as the variant, how does the enrichment ratio read?
Answer: ≤ 0.25

Question: For YFPY, which enrichment ratio is on record?
Answer: ≤ 0.25

Question: For VEEF, which enrichment ratio is on record?
Answer: ≤ 0.25

Question: For DAFE, which enrichment ratio is on record?
Answer: ≤ 0.25

Question: Which enrichment ratio does the source give for FKWW here?
Answer: ≤ 0.25

Question: For RRDF, which enrichment ratio is on record?
Answer: ≤ 0.25

Question: For LPIC, which enrichment ratio is on record?
Answer: ≤ 0.25

Question: Which enrichment ratio does the source give for PAFE here?
Answer: ≤ 0.25

Question: How did the enrichment ratio turn out when RTYP was run?
Answer: ≤ 0.25

Question: How did the enrichment ratio turn out when LHPH was run?
Answer: ≤ 0.25

Question: VGKF was tested. Which enrichment ratio did it give?
Answer: ≤ 0.25

Question: For QDNQ, which enrichment ratio is on record?
Answer: ≤ 0.25

Question: NGFC was tested. Which enrichment ratio did it give?
Answer: ≤ 0.25

Question: How did the enrichment ratio turn out when WGYQ was run?
Answer: ≤ 0.25

Question: Which enrichment ratio does the source give for KTAE here?
Answer: ≤ 0.25

Question: Which enrichment ratio does the source give for FSSE here?
Answer: ≤ 0.25

Question: Which enrichment ratio does the source give for MNPP here?
Answer: ≤ 0.25

Question: How did the enrichment ratio turn out when FENS was run?
Answer: ≤ 0.25

Question: AETF was tested. Which enrichment ratio did it give?
Answer: 9.37

Question: Which enrichment ratio does the source give for PNWF here?
Answer: ≤ 0.25

Question: For FPNQ, which enrichment ratio is on record?
Answer: ≤ 0.25

Question: With PLSR as the variant, how does the enrichment ratio read?
Answer: ≤ 0.25

Question: NFIF was tested. Which enrichment ratio did it give?
Answer: ≤ 0.25

Question: With EFCK as the variant, how does the enrichment ratio read?
Answer: ≤ 0.25

Question: Which enrichment ratio does the source give for NRQV here?
Answer: ≤ 0.25

Question: For PYFS, which enrichment ratio is on record?
Answer: ≤ 0.25

Question: For VSKC, which enrichment ratio is on record?
Answer: ≤ 0.25

Question: How did the enrichment ratio turn out when FRQF was run?
Answer: ≤ 0.25

Question: How did the enrichment ratio turn out when YVER was run?
Answer: ≤ 0.25

Question: How did the enrichment ratio turn out when TACN was run?
Answer: 13

Question: Which enrichment ratio does the source give for EMTF here?
Answer: ≤ 0.25

Question: Which enrichment ratio does the source give for NNRA here?
Answer: ≤ 0.25

Question: KACT was tested. Which enrichment ratio did it give?
Answer: ≤ 0.25

Question: For SCIG, which enrichment ratio is on record?
Answer: 3.69

Question: DLVQ was tested. Which enrichment ratio did it give?
Answer: ≤ 0.25

Question: MDLN was tested. Which enrichment ratio did it give?
Answer: ≤ 0.25

Question: DSDP was tested. Which enrichment ratio did it give?
Answer: ≤ 0.25

Question: With YNIF as the variant, how does the enrichment ratio read?
Answer: ≤ 0.25

Question: For MTGQ, which enrichment ratio is on record?
Answer: 6.54

Question: With GLAP as the variant, how does the enrichment ratio read?
Answer: ≤ 0.25

Question: How did the enrichment ratio turn out when WAKW was run?
Answer: ≤ 0.25

Question: MNGK was tested. Which enrichment ratio did it give?
Answer: ≤ 0.25

Question: How did the enrichment ratio turn out when SWTK was run?
Answer: ≤ 0.25

Question: For VTLL, which enrichment ratio is on record?
Answer: 17.8

Question: Which enrichment ratio does the source give for YCIY here?
Answer: ≤ 0.25

Question: With NTPW as the variant, how does the enrichment ratio read?
Answer: ≤ 0.25

Question: For GVAF, which enrichment ratio is on record?
Answer: 10.8

Question: MYWA was tested. Which enrichment ratio did it give?
Answer: ≤ 0.25

Question: How did the enrichment ratio turn out when YHPQ was run?
Answer: ≤ 0.25

Question: DFSD was tested. Which enrichment ratio did it give?
Answer: ≤ 0.25

Question: For HVHD, which enrichment ratio is on record?
Answer: ≤ 0.25

Question: How did the enrichment ratio turn out when DLRV was run?
Answer: ≤ 0.25

Question: With NKID as the variant, how does the enrichment ratio read?
Answer: ≤ 0.25

Question: Which enrichment ratio does the source give for YNII here?
Answer: ≤ 0.25

Question: With AAYQ as the variant, how does the enrichment ratio read?
Answer: ≤ 0.25

Question: With KYFE as the variant, how does the enrichment ratio read?
Answer: ≤ 0.25

Question: How did the enrichment ratio turn out when AKEH was run?
Answer: ≤ 0.25

Question: With EKKF as the variant, how does the enrichment ratio read?
Answer: ≤ 0.25

Question: How did the enrichment ratio turn out when TNCM was run?
Answer: 0.338

Question: How did the enrichment ratio turn out when LPAC was run?
Answer: ≤ 0.25

Question: TIDA was tested. Which enrichment ratio did it give?
Answer: ≤ 0.25

Question: Which enrichment ratio does the source give for KFMQ here?
Answer: ≤ 0.25

Question: Which enrichment ratio does the source give for FRQI here?
Answer: ≤ 0.25

Question: For FLAV, which enrichment ratio is on record?
Answer: ≤ 0.25

Question: How did the enrichment ratio turn out when DTST was run?
Answer: ≤ 0.25

Question: How did the enrichment ratio turn out when VCGL was run?
Answer: 0.55

Question: Which enrichment ratio does the source give for ENCC here?
Answer: ≤ 0.25

Question: DHPR was tested. Which enrichment ratio did it give?
Answer: ≤ 0.25

Question: For FNGL, which enrichment ratio is on record?
Answer: ≤ 0.25

Question: How did the enrichment ratio turn out when KRVW was run?
Answer: ≤ 0.25

Question: With PAES as the variant, how does the enrichment ratio read?
Answer: ≤ 0.25

Question: HWIW was tested. Which enrichment ratio did it give?
Answer: ≤ 0.25

Question: For VFLK, which enrichment ratio is on record?
Answer: ≤ 0.25

Question: GFYD was tested. Which enrichment ratio did it give?
Answer: ≤ 0.25

Question: With FGQM as the variant, how does the enrichment ratio read?
Answer: ≤ 0.25

Question: How did the enrichment ratio turn out when RRRE was run?
Answer: ≤ 0.25

Question: With LWKP as the variant, how does the enrichment ratio read?
Answer: ≤ 0.25

Question: Which enrichment ratio does the source give for EEKP here?
Answer: ≤ 0.25

Question: With VYCC as the variant, how does the enrichment ratio read?
Answer: ≤ 0.25

Question: How did the enrichment ratio turn out when NGTA was run?
Answer: ≤ 0.25

Question: For VYEG, which enrichment ratio is on record?
Answer: ≤ 0.25

Question: How did the enrichment ratio turn out when PMYM was run?
Answer: ≤ 0.25

Question: TDLG was tested. Which enrichment ratio did it give?
Answer: 5.5

Question: QRQM was tested. Which enrichment ratio did it give?
Answer: ≤ 0.25

Question: EEVF was tested. Which enrichment ratio did it give?
Answer: ≤ 0.25

Question: Which enrichment ratio does the source give for ICQG here?
Answer: ≤ 0.25

Question: For VQEN, which enrichment ratio is on record?
Answer: ≤ 0.25

Question: For SGVF, which enrichment ratio is on record?
Answer: 8.16

Question: LMMH was tested. Which enrichment ratio did it give?
Answer: ≤ 0.25

Question: Which enrichment ratio does the source give for QDKS here?
Answer: ≤ 0.25

Question: For PASV, which enrichment ratio is on record?
Answer: ≤ 0.25

Question: LKED was tested. Which enrichment ratio did it give?
Answer: ≤ 0.25

Question: SVYI was tested. Which enrichment ratio did it give?
Answer: ≤ 0.25

Question: Which enrichment ratio does the source give for KENS here?
Answer: ≤ 0.25

Question: Which enrichment ratio does the source give for GEFV here?
Answer: ≤ 0.25

Question: How did the enrichment ratio turn out when STMG was run?
Answer: 9.85

Question: Which enrichment ratio does the source give for SFKR here?
Answer: 0.513

Question: With NPYN as the variant, how does the enrichment ratio read?
Answer: ≤ 0.25

Question: Which enrichment ratio does the source give for GFSY here?
Answer: ≤ 0.25

Question: For NKYP, which enrichment ratio is on record?
Answer: ≤ 0.25

Question: With FAEL as the variant, how does the enrichment ratio read?
Answer: ≤ 0.25

Question: Which enrichment ratio does the source give for VMSP here?
Answer: ≤ 0.25

Question: With TRNT as the variant, how does the enrichment ratio read?
Answer: ≤ 0.25

Question: Which enrichment ratio does the source give for IEQA here?
Answer: ≤ 0.25

Question: With PDWW as the variant, how does the enrichment ratio read?
Answer: ≤ 0.25
